Screen size: about 310,000 compounds; about 14,000 (4.5%) showed an effect of 50% or more. Effects have a minus sign here. Some of the results follow.
target: human ether-à-go-go-related gene (hERG) potassium channel (human, UniProt Q12809); assay: primary screen, population patch clamp on CHO cells stably expressing hERG
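Further: peak tail current of the secondary pulse compared with the same well before compound.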

Chain of human ether-à-go-go-related gene (hERG) potassium channel (Q12809 whole entry, looked up): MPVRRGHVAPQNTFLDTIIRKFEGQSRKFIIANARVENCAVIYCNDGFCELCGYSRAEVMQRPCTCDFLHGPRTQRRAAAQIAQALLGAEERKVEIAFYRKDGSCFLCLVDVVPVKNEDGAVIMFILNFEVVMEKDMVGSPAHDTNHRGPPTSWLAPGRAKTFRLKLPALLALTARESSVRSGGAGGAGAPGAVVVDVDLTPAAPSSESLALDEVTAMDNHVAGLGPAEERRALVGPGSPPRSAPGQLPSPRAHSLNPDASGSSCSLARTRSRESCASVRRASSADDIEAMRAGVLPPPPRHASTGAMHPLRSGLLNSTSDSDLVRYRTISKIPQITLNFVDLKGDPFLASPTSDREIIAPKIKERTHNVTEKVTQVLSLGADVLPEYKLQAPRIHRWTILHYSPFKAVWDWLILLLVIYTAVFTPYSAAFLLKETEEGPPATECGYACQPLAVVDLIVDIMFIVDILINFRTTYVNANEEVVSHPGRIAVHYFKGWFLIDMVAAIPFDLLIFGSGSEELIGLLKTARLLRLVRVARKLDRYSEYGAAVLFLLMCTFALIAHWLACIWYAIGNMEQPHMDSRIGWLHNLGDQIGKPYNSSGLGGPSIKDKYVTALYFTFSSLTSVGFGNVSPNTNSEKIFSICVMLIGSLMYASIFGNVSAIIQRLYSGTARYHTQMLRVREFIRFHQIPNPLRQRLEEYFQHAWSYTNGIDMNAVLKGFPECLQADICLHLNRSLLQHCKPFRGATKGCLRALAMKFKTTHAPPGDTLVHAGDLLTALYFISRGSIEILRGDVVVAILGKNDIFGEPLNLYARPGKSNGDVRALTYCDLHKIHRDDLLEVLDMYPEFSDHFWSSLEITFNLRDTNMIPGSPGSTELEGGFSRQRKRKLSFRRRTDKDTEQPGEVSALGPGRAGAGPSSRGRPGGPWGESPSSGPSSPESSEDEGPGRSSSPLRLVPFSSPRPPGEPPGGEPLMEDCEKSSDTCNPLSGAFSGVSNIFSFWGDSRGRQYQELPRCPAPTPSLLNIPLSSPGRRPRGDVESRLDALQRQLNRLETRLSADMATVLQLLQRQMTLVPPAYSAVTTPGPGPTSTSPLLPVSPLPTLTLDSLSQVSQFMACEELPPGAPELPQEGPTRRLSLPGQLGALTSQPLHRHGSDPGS

Compound | hERG current change (%, negative = inhibition) at 10uM [%]
Cc1cc(=O)[nH]c(SCC(=O)NNC(=O)Cc2ccccc2)n1 | -2.15
COC(=O)c1ccccc1NC(=S)NC(NC(=O)c1ccccc1[N+](=O)[O-])C(Cl)(Cl)Cl (stereo not drawn) | -1.4
C/C(CC(=O)NCCCN1CCOCC1)=N\NC(=O)COc1ccc(C)cc1 | 13.9
COc1ccc(Sc2ncnc3onc(C)c23)cc1 | 4.3
Cc1cccnc1Nc1ncnc(N)c1[N+](=O)[O-] | -0.167
COc1cc2[nH]c3c(N4CCN(c5ccc(Cl)cc5)CC4)ncnc3c2cc1OC | -4.15
C=CCn1c(=O)c(C(=O)Nc2ccc(C)cc2)c(O)c2ccccc21 | 30.8
COc1cc(C(=O)NCCCCc2ccccc2)cc(OC)c1OC | 0.271
CCCc1cc(=O)[nH]c(SCC(=O)N(C)C2CCCCC2)n1 | 9.03
CC(C)(O)C#Cc1ccc(CN2CCN(C3CCCCC3)C(CCO)C2)s1 (stereo not drawn) | 16.7
Cc1cc(=O)[nH]c(N/N=C/c2cn(CCC#N)nc2-c2ccccc2)n1 | 16.7
COc1cccc(-c2nc(=S)c3c(n2CCCO)CCCC3)c1 | 3.34
CSCCC(NC(=O)c1ccccc1Cl)C(=O)Nc1cccc(S(=O)(=O)N2CCCC2)c1 (stereo not drawn) | 11.5
O=C(COC(=O)c1cc(S(=O)(=O)N2CCOCC2)ccc1O)Nc1cc(S(=O)(=O)N2CCCC2)ccc1Cl | 9.55
COC(=O)C1CC(=O)c2ccsc2C1 (stereo not drawn) | 1.13
C=CCOc1cccc(C(=O)/C=C2/C(=O)Nc3ccccc32)c1 | 21.9
CCOC(=O)c1cc(-c2ccccc2)sc1NC(=O)C(C)N1C(=O)NC(C)(c2ccc(Cl)cc2)C1=O (stereo not drawn) | 4.01
COc1ccc(NC(=O)CCCc2ccccc2)cc1OC | 11.3
Cc1ccc(NC(=O)C(OC(=O)c2ccccc2Cl)c2ccccc2)cc1Cl (stereo not drawn) | 13.6

Compound | hERG current change (%, negative = inhibition) at 10uM [%]
COc1ccc(CNC(=O)CN(C)S(=O)(=O)c2ccc(Br)s2)cc1 | -12.7
COc1cccc(CNC2CCCCCCC2)c1OC | 10.5
CC1CCN(S(=O)(=O)c2ccc(C(=O)NCc3cccnc3)cc2)CC1 | -5.44
CC1=C(C(=O)OCC(Cl)(Cl)Cl)N2C(=O)C(NC(=O)Cc3ccccc3)C2SC1 (stereo not drawn) | 15.5
CCCCCCCNC(=O)CN1N=C(c2ccc(C)cc2)CCC1=O | -67.8
CC(Sc1ncccn1)C(=O)NC1CCCC1 (stereo not drawn) | 5
O=C(CCC1CCCN(C(=O)c2cc3ccccc3o2)C1)NCc1ccc(F)c(F)c1 (stereo not drawn) | -36.9
Cc1cc(NC(=O)Nc2cccc(C)c2C)no1 | 16
Cc1nn(C)c(Nc2ccc(Br)cc2)c1Br | -8.49
Cc1ccnc(NS(=O)(=O)c2ccc(NC(=O)CCOc3ccccc3)cc2)n1 | 15.7
CCOC(=O)c1sc2nc(C)nc(Nc3ccc(OC)cc3)c2c1C | 24.1
COC(=O)c1ccccc1NC(=O)N1CCN(S(C)(=O)=O)CC1 | 22.2
O=C(Cn1nnc(-c2cccs2)n1)NCCc1ccccc1 | 5.74
CC(C)CC[n+]1ccn(-c2nc3ccccc3nc2[N-]S(=O)(=O)c2ccccc2)c1 | 0.998
O=C(NCc1ccccc1)c1csc2c1CCCC2 | 5.15
O=C(c1ccc(F)cc1)N1CCC(N2CCOCC2)CC1 | -5.45
COc1cccc(NC(=O)CN(C)C(=O)/C=C/c2cn(-c3ccccc3)nc2-c2ccc(C)cc2)c1 | -2.64
CCN(CC)c1nc2n(c(=S)n1)CCS2 | 3.89
Cc1ccc(S(=O)(=O)N(CC(=O)NCC2CCCO2)C2CCCCC2)cc1 (stereo not drawn) | -10.6

Compound | hERG current change (%, negative = inhibition) at 10uM [%]
CC(=O)C1C(c2cccc([N+](=O)[O-])c2)C2C(C)=NN=C2CC1(C)O (stereo not drawn) | 1.42
COc1ccc(Cn2c(N)c(S(=O)(=O)c3cccs3)c3nc4ccccc4nc32)cc1 | 1.62
Cc1cc(C)c2c(CC(=O)NCCc3ccccc3)coc2c1 | 14.8
CC(=O)NC(Cc1ccccc1C)C(=O)NC1CCN(C(=O)c2ccc(C)cc2)CC1 (stereo not drawn) | -19.9
OC(CN1CCN(Cc2ccccc2)CC1)c1ccccc1 (stereo not drawn) | -30.3
COc1ccc(Nc2nc3c(C)cccc3cc2C#N)c(OC)c1 | 12.1
COc1ccc(C2c3[nH]c4ccccc4c3C[C@H]3C(=O)N(c4ccccc4C(=O)NCCN4CCOCC4)C(=O)N23)cc1 (stereo partly drawn) | -23.7
CCCCCCSc1cc(-c2nc3cc(C)ccn3c2NC2CCCCC2)ccc1OC.O=C(O)C(F)(F)F | 10.3
Cn1nc(C(F)(F)F)c(-c2ccccc2)c1NC(=O)c1nccnc1C(=O)O | 19.2
CCCCn1c(N)c(N(CCC(C)C)C(=O)C2CCCC2)c(=O)[nH]c1=O | 1.27
CSc1snnc1-c1ccccc1 | 25.6
CCN(C(=O)c1ccc2c(=O)n3c(nc2c1)CCCCC3)c1ccc(F)cc1 | -3.52
CC(C)(C)Cc1nc(-c2ccc(Cl)cc2)no1 | 14.9
CCOCCn1c(CN2CCc3ccccc3C2)nc2c1c(=O)n(C)c(=O)n2C | -7.38
Cc1ccc(OCc2ccc(C(=O)Nc3ccc(C(N)=O)cc3)o2)c([N+](=O)[O-])c1 | 10.5
CC1CCCCC1NC(=O)CSc1nnc(N)s1 (stereo not drawn) | -22.7
CCCCNC(=O)C1(O)c2ccccc2NC(=O)N1c1ccc(Cl)cc1 (stereo not drawn) | 13.3
CCOc1ccc(/C=N/NC(=O)C(O)c2ccccc2)c(O)c1 (stereo not drawn) | 15.3
Nc1nnc(SCCN2C(=O)c3ccccc3S2(=O)=O)s1 | 6.63

— paper PMC4336329 (PLoS ONE, 2015)
